Reference: PubChem BioAssay AID1346428 (National Center for Advancing Translational Sciences (NCATS), 2018)
The whole screen tested about 48,000 compounds, of which about 1,200 (2.5%) were called active. Roughly 2% stayed inconclusive and do not appear here.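 How the source made its calls: active means activation of at least 60% and not above a set upper limit (about 1 call in 100 departs from these limits); inconclusive means activation of 40% to 60%, or above that upper limit; inactive means activation under 40%.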 This is one part of the list.

Target: Probable G-protein coupled receptor 32 (Homo sapiens) (UniProt O75388)
Sequence of UniProt O75388 (O75388 whole entry, looked up): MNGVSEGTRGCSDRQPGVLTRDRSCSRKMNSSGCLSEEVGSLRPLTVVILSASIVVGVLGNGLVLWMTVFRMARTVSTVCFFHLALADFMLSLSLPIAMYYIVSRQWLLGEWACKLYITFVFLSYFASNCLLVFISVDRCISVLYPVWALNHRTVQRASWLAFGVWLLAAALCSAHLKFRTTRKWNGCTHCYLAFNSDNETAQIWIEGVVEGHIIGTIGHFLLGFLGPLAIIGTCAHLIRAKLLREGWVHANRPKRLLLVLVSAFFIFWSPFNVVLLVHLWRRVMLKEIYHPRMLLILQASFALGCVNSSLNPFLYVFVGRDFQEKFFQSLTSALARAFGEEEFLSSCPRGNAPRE
Assay: qHTS for Agonists of Human Resolvin D1 Receptor DRV1; further: 0% is about no effect
Conditions: CHO-K1 GPR32 beta-arrestin PathHunter luminescence, 90 min; at 76.9 µM; hits give high values; zero percent set by DMSO-only wells
In short: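 Cells are plated overnight, treated with compounds in DMSO for 90 minutes at 37 °C, and developed with PathHunter detection reagent for 1 hour before luminescence is read; signal reflects beta-arrestin binding to GPR32 in engineered CHO-K1 cells.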

| Compound | activation |
| --- | --- |
| CCN(CC)c1nn2c(=O)c(C(=O)NCc3ccccc3Br)cnc2s1 | inactive: -14.1% |
| Cn1nc(C(=O)NCc2ccccc2Cl)c2c1-c1ccccc1SC2 | inactive: -8.69% |
| Cc1cccc(NC(=O)c2ccc(Cn3nc(N4CCN(c5ccccc5)CC4)ccc3=O)o2)c1C | inactive: 38.2% |
| O=C(NCCc1ccc(Cl)cc1)c1cc2c(s1)-c1ccccc1OC2 | active: 62.4% |
| CCOc1ccc(NC(=O)N2CCN(C(=O)c3nsc4ccccc34)CC2)cc1 | inactive: -3.5% |
| COc1cc(OC)c2c(C)c(CC(=O)NCc3ccccc3OC)c(=O)oc2c1 | inactive: 14.6% |
| COc1ccc(-c2cc(C(F)(F)F)nc(SCC(=O)N(C)Cc3ccccc3)n2)cc1 | inactive: -26.7% |
| O=S(=O)(Nc1cccc(-c2ccc(N3CCOCC3)nn2)c1)c1ccc(F)c(C(F)(F)F)c1 | inactive: 29.9% |
| COc1ccc(CCNC(=O)c2ccc3c(c2)CCN3S(=O)(=O)c2ccc(C)cc2)cc1OC | inactive: 6.25% |
| Brc1c(Br)c(Br)c2[nH]cnc2c1Br | inactive: 4.71% |
| Cc1ccc(NC(=O)CSc2nccn2-c2ccccc2)cc1 | inactive: -10.5% |
| O=C(COc1ccccc1Cl)Nc1ccc2nc(SCC(=O)N3CCOCC3)sc2c1 | inactive: 3.32% |
| CCSc1nc2sc3c(c2c(=O)n1-c1ccc(C)c(Cl)c1)CCN(C(C)=O)C3 | inactive: 8.05% |
| O=S(=O)(c1ccc2nc(Nc3ccc(Br)cc3F)ccc2c1)N1CCCCC1 | inactive: -13.7% |
| O=C(CCNS(=O)(=O)c1ccc2c(c1)CCCC(=O)N2)NCc1ccc(Cl)cc1 | inactive: 7.41% |
| Cc1cc(Cl)ccc1OCCSc1nnc(-c2cccs2)o1 | inactive: -4.65% |
| Cc1cc(=O)n(Cc2ccc(Br)cc2F)c2c1c(C)nn2-c1ccccc1 | inactive: -20.7% |
| Cc1ccc(NC(=O)Cn2c(=O)n(CCCCC(=O)NCCc3ccccc3)c(=O)c3ccccc32)cc1 | inactive: -3.24% |
| Cc1ccccc1Cn1cc(S(=O)(=O)c2ccc(F)cc2)c(=O)c2cc3c(cc21)OCO3 | inactive: 1.83% |
| COC(=O)c1sccc1S(=O)(=O)N(CC(=O)Nc1cc(F)ccc1F)c1ccc(C)c(C)c1 | inactive: -1.88% |
| CCc1nccn1S(=O)(=O)c1cc(Br)ccc1Br | inactive: -4.63% |

| Compound | activation |
| --- | --- |
| COc1ccc(C)cc1NC(=O)CN(C)S(=O)(=O)c1ccc2[nH]c(=O)oc2c1 | inactive: 3.17% |
| COC(=O)c1ccc2c(c1)N(CC(=O)Nc1ccc(C)cc1Cl)C(=O)c1ccccc1S2 | inactive: -15.5% |
| COc1ccc2c(c1)CC(C(=O)Nc1cc(OC)c(OC)c(OC)c1)CO2 (centres undefined) | inactive: -4.09% |
| Cc1cccc(CCNC(=O)CCc2c(C)nc3c(c(C)nn3-c3ccccc3)c2C)c1 | inactive: -16.5% |
| COc1ccc(OC)c(CNc2ncnc3onc(C)c23)c1 | inactive: 4.1% |
| CCOC(=O)c1cc2c(=O)n3ccccc3nc2n(C(C)C)c1=NC(=O)c1c(-c2c(F)cccc2Cl)noc1C | inactive: 14.1% |
| CCc1cccc(C)c1NC(=O)c1cc(S(=O)(=O)N2CCN(c3ccccc3)CC2)ccc1F | inactive: 20.3% |
| Clc1ccc(CNc2ncnc3onc(-c4ccc(Cl)cc4)c23)cc1 | inactive: 1.99% |
| CN1C(=O)c2ccccc2Sc2ccc(NC(=O)N3CCN(c4cccc(Cl)c4)CC3)cc21 | inactive: 10.7% |
| CN(C)c1ccc(C(=O)NCc2ccc3c(c2)CCN3C(=O)c2ccc(Cl)cc2)cc1 | inactive: -21.5% |
| COc1ccc(Cl)cc1NC(=O)CCn1nc(C)cc1C | inactive: -0.267% |
| COc1ccc(C(=O)NCc2ccc3c(c2)CCN3C(=O)c2ccc(Cl)cc2)c(OC)c1 | inactive: -21.9% |
| COc1cc(OC)cc(C(=O)Nc2cccc(-c3cn4ccsc4n3)c2)c1 | inactive: -11.2% |
| CCC(Cc1ccccc1)NC(=O)c1cccc(Nc2nc3ccccc3nc2-n2nc(C)cc2C)c1 (centres undefined) | inactive: 0.319% |
| CCC1CN(C(=O)N2CCC(C(=O)NCCC3=CCCCC3)CC2)c2ccccc2O1 (centres undefined) | inactive: -11% |
| CCOc1ccc(NC(=O)CSc2cn(CC(=O)N3CCOCC3)c3ccccc23)cc1 | inactive: -11.5% |
| CC(C)OCCCn1c(SCc2ccccc2Cl)nc2c(sc3ccccc32)c1=O | inactive: 40.6% |
| CCC1CCCCN1C(=O)Cn1c(=O)n(-c2ccc(Cl)c(Cl)c2)c(=O)c2c(C)c(C(=O)N(C)C)sc21 (centres undefined) | inactive: -23.9% |
| CCOc1ccc(NC(=O)C2CCC(CNS(=O)(=O)c3ccc4c(c3)CCCC(=O)N4)CC2)cc1 (centres undefined) | inactive: -29.6% |
| COc1ccc(CCNC(=O)c2cc(=O)[nH]c3ccc(S(=O)(=O)N4CCCCC4)cc23)cc1OC | inactive: -9.04% |
| CC(=O)Nc1c(C)nn(-c2ccccc2)c1N1CCC(C(=O)NCc2cccc(F)c2)CC1 | inactive: -9.06% |

| Compound | activation |
| --- | --- |
| Cc1ccc(N(CC(=O)N2CCN(c3cccc(C)c3C)CC2)S(=O)(=O)c2c(C)nn(C)c2C)cc1 | inactive: -12.8% |
| CCN(c1cc(C)cc(C)c1)S(=O)(=O)c1nnc(NC(=O)c2ccccc2C)s1 | inactive: 7.92% |
| CCCCN(c1ccccc1)c1ncnc2c1cnn2-c1cccc(C)c1 | inactive: 2.17% |
| CC(=O)Nc1ccc2nc(SCCOc3ccccc3Cl)sc2c1 | active: 69.4% |
| CCOC(=O)c1c(C)[nH]c(C)c1S(=O)(=O)N(C)CC(=O)Nc1ccc(C)c(F)c1 | inactive: -18.9% |
| CN(C(=O)CSc1nc2ccccc2n1CC(=O)N(C)C1CCCCC1)c1ccc(F)cc1 | inactive: -9.54% |
| CCc1ccccc1NC(=O)c1ccc2c(c1)c(C)c(C)n2Cc1ccccc1 | inactive: -8.52% |
| Cc1cc(C)c(NC(=O)C2CCCN(C(=O)c3cnn(-c4ccccc4)c3-n3cccc3)C2)c(C)c1 (centres undefined) | inactive: 6.98% |
| COC(=O)c1cc2sccc2n1Cc1nc(-c2ccc(C)cc2)oc1C | inactive: -15.1% |
| CCc1ccc(S(=O)(=O)c2cn(Cc3ccc(OC)cc3)c3cc(OC)c(OC)cc3c2=O)cc1 | inactive: -11.2% |
| O=C(COc1ccc(Br)cc1)Nc1ccc(C(=O)OC2CCCCC2)cc1 | inactive: -11% |
| COc1ccc(NC(=O)CCc2c(C)nc3cc(-c4cccc(F)c4)nn3c2C)cc1Cl | inactive: -1.63% |
| CCc1nnc2c3ccccc3nc(N3CCN(c4cc(Cl)ccc4C)CC3)n12 | inactive: 1.94% |
| CCOc1ccc(NC(=O)Cn2c(=O)n(-c3ccccc3)c(=O)c3c4c(sc32)CCCC4)cc1 | inactive: 5.76% |
| O=C1CC(c2ccc(Br)cc2)c2c(ccc3ccccc23)N1 (centres undefined) | inactive: 20.7% |
| CCc1nc2nc(C)cc(Nc3ccc(F)c(Cl)c3)n2n1 | inactive: -17.5% |
| Cc1ccc(CN2CCC(CNC(=O)Nc3cccc(C)c3C)C2)cc1 (centres undefined) | inactive: -27.9% |
| COC(=O)c1c(Oc2ccc(Br)cc2)nnc(-c2ccccc2)c1-c1ccccc1 | inactive: -6.14% |
| Cc1c(Cl)cccc1NC(=O)Cn1c(=O)n(Cc2ccco2)c(=O)c2oc3ccccc3c21 | inactive: -1.75% |
| CC(=O)N1CCCc2cc(S(=O)(=O)N3CCCC(C(=O)Nc4ccc(C)c(F)c4)C3)ccc21 (centres undefined) | inactive: -0.0607% |
| Cc1cccc(C(=O)Nc2ccccc2OCc2cc(=O)n3cc(C)ccc3n2)c1 | inactive: -0.64% |

| Compound | activation |
| --- | --- |
| COc1cc(OC)c2c(C)c(CC(=O)N3CCCCC3)c(=O)oc2c1 | inactive: 14.9% |
| CCN(CC)CCCNc1oc(-c2ccc(OC)cc2)nc1C#N | inactive: -13.9% |
| COc1ccccc1-c1c(C)nn2c(N3CCN(c4ccc(F)cc4)CC3)cc(C)nc12 | inactive: -2.12% |
| CC(C)n1c(=O)c2oc3ccccc3c2n(CC(=O)Nc2ccccc2Cl)c1=O | inactive: -24.8% |
| CCn1c(C)c(C)c2cc(C(=O)NCCc3cc(OC)ccc3OC)ccc21 | inactive: -11.7% |
| O=C(Nc1cccc(C(F)(F)F)c1)C1CCCN(S(=O)(=O)c2cccc3nonc23)C1 (centres undefined) | inactive: 40.2% |
| Cc1oc2ncn(CC(C)C)c(=O)c2c1C(=O)NCCCN(C)Cc1ccccc1 | inactive: -14.6% |
| Cc1cc2oc(C(=O)Nc3ccc(S(=O)(=O)N(C)c4ccccc4)cc3)cc(=O)c2cc1C | inactive: 1.4% |
| Cc1oc2c(C)c3oc(=O)c(CCC(=O)N4CCCCC4)c(C)c3cc2c1C | inactive: -9.55% |
| CCOC(=O)c1c(SCC(=O)Nc2cccc(C)c2C)nc(=O)[nH]c1C | inactive: -13.2% |
| COc1cc(-c2nnc(SCCOc3ccccc3)o2)cc(OC)c1OC | inactive: 4.2% |
| CCOC(=O)Cn1c(=O)oc2cc(S(=O)(=O)Nc3ccccc3F)ccc21 | inactive: -28% |
| COc1ccc(-c2noc(-c3ccc(NCCc4ccccc4)c([N+](=O)[O-])c3)n2)cc1 | inactive: 3.74% |
| Cc1ccc(Cn2c(CO)cnc2SCC(=O)Nc2cccc(F)c2)cc1 | inactive: 29% |
| CC(=O)N1CCc2c(sc(NC(=O)CSc3ccc(F)cc3)c2-c2nc3ccccc3s2)C1 | inactive: -39.4% |
| O=C(Cn1cc(S(=O)(=O)Cc2ccccc2Cl)c2ccccc21)Nc1ccc(F)cc1F | inactive: 13.2% |
| COc1ccccc1N1CCN(C(=O)COc2ccccc2C#N)CC1 | inactive: -8% |
| CCOc1ccc(CNC(=O)c2ccc3c(c2)N(Cc2ccccc2)CCS3)cc1 | inactive: -23.9% |
| COC(=O)c1ccc2c(c1)N(Cc1cc(C)ccc1C)C(=O)c1ccccc1S2(=O)=O | inactive: -12.5% |
| O=C(Cn1ncc2c(Cl)cccc21)NCc1cccc(F)c1 | inactive: -7.68% |
| CCOc1ccc(S(=O)(=O)N2CCC(n3c(C)nc4cccnc43)CC2)cc1 | active: 75.6% |
